Screen size: about 360,000 compounds; about 25,000 (6.9%) were called active. The inconclusive results got no clear call from the source; some entries with a clear call stand among them for comparison. The call rests on the fitted dose curve; in most records, active means well fitted inhibition curve with a large enough effect; inconclusive means small, poorly fitted or top-dose-only effect; inactive means flat fitted curve, though single readings scatter. Where the call is inconclusive, the potency comes from a doubtful curve fit.
Each compound was assayed against Luciferin 4-monooxygenase (Photinus pyralis) (UniProt P08659) (assay: qHTS profiling assay for firefly luciferase inhibitor/activator using purifed enzyme and Km concentrations of substrates (counterscreen for miR-21 project)). Settings: purified FLuc, luminescence inhibition; series mostly up to 57.5 µM; activity change, negative = inhibition: at the top concentration.
Chain of UniProt P08659 (P08659 whole entry, looked up): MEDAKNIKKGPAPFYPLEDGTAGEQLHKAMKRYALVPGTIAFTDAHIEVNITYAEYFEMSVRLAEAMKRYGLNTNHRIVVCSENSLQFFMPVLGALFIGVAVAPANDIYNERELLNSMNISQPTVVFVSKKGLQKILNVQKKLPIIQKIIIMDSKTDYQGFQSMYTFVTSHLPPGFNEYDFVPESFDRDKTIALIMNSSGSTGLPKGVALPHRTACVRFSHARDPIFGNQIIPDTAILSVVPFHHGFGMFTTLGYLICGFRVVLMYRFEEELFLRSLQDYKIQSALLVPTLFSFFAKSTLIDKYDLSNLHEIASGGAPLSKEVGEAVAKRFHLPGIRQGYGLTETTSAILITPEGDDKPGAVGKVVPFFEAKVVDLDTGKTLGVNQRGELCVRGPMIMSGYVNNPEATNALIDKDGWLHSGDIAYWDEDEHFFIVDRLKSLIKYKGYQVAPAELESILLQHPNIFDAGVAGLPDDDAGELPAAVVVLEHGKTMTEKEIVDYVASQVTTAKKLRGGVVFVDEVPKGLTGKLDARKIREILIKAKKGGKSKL
Method in brief: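 Purified P. pyralis luciferase, 10 nM final, with Km-level 10 uM D-luciferin and 10 uM ATP in 50 mM Tris acetate pH 7.5, 10 mM Mg acetate, 0.01% Tween-20, 0.05% BSA; 6-point qHTS titration about 60 µM downward; luminescence read.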
Further: nearly all actives have a fitted effect of over 55% in size.
Potency means the concentration at half of the fitted maximal effect; tags describe the fitted curve by direction and shape.
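Wherever activity change, negative = inhibition is given: plate controls were vehicle for no effect and reference inhibitor for full effect.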

Row | SMILES | Potency | activity change, negative = inhibition
1 | CCCSc1nc(C)c2cc(C)cc(C)c2n1 | inconclusive: 23.9 µM [inhibitor, partial curve, poor fit] | 
2 | CCc1nnc(NS(=O)(=O)c2ccc(NC(=O)c3cccc(Cl)c3)cc2)s1 | inconclusive: 23.9 µM [inhibitor, partial curve] | 
3 | CC(C(=O)Nc1ccccc1)n1nnc2sc3c(c2c1=O)CCCC3 (centres undefined) |  | inactive: -14.3%
4 | Cc1ccc(NC(=O)CSc2nc3ccccc3n2CC(=O)N(C)C2CCCCC2)cc1C | inconclusive: 30.1 µM [inhibitor, partial curve, poor fit] | 
5 | COc1cccc(NC(=O)Cn2c(=O)n(CCc3cccc(C)c3)c(=O)c3ccccc32)c1 | inconclusive: 21.3 µM [inhibitor, partial curve, poor fit] | 
6 | O=c1c2ccccc2nc2ccc(NCc3cccs3)nn12 | active: 8.49 µM | 
7 | COC(=O)C1CCCCN1C(=O)c1ccc2oc(Cc3ccccc3)nc2c1 (centres undefined) | active: 15.1 µM | 
8 | COc1cccc(CNC(=O)c2ccc3c(c2)nc2n3CCC(C)C2)c1 (centres undefined) | inconclusive: 37.9 µM [inhibitor, single point] | 
9 | CCCN(CCC)C(=O)c1nn(C)c2c1CSc1ccccc1-2 |  | inactive: -1.64%
10 | O=C(Nc1ccc(CN2CCOCC2)cc1)c1ccc2ccccc2c1 | active: 8.49 µM | 
11 | Cc1nnsc1C(=O)NC1CCCc2c1cnn2-c1ccc(C(C)(C)C)cc1 (centres undefined) | inconclusive: 21.3 µM [inhibitor, partial curve] | 
12 | CC(C)C(=O)Nc1cccc(C(=O)Nc2nnc(C(F)(F)F)s2)c1 | active: 16.9 µM | 
13 | CN1CCN(Cc2ccc(-c3ccc(Cl)cc3)o2)CC1 | inconclusive: 37.9 µM [inhibitor, single point] | 
14 | O=[N+]([O-])c1cccc(NN=Nc2ccccc2)c1 | active: 10.7 µM | 
15 | Cc1ccccc1/C=N/NC(=O)c1ccc(-n2cnnn2)cc1 | inconclusive: 19 µM [inhibitor, partial curve, poor fit] | 
16 | Cc1cc(SCC(=O)Nc2ncc(Cl)cc2Cl)nc2ccccc12 | inconclusive: 37.9 µM [inhibitor, partial curve, poor fit] | 
17 | CCn1c(SCC(=O)Nc2ccc(C(C)=O)cc2)nc2ccccc21 | inconclusive: 6.75 µM [inhibitor, partial curve, poor fit] | 
18 | Cc1cccc(NC(=O)CSc2nc3nc(C)cc(C)n3n2)c1 |  | inactive: 2.79%
19 | Cc1cc(C(=O)COC(=O)C2COc3ccccc3O2)c(C)n1CC1CCCO1 (centres undefined) | active: 4.78 µM | 
20 | COc1ccc(S(=O)(=O)N(CCc2ccccc2)CC(=O)Nc2cc(C)cc(C)c2)cc1OC |  | inactive: -2.16%
21 | CCCCCCC(=O)N(O)C1CC(=O)N(c2ccc(C)cc2)C1=O (centres undefined) | inconclusive: 37.9 µM [inhibitor, partial curve, poor fit] | 
22 | C/C(N)=C(/C#N)C(=O)CSc1n[nH]c(-c2ccccc2Br)n1 | inconclusive: 21.3 µM [inhibitor, single point] | 
23 | CC(=O)c1c(C)[nH]c(C(=O)OCC(=O)NCc2cccs2)c1C | inconclusive: 21.3 µM [inhibitor, partial curve, poor fit] | 
24 | O=C(N/N=C/c1cccs1)c1cccc2cc[nH]c12 | active: 23.9 µM | 
25 | CCSc1nnc(NC(=O)c2cccnc2)s1 | inconclusive: 19 µM [inhibitor, partial curve] | 

Row | SMILES | Potency | activity change, negative = inhibition
26 | O=C(Nc1ccc2oc(-c3cccnc3)nc2c1)c1cc2ccccc2o1 | inconclusive: 3.01 µM [inhibitor, partial curve, poor fit] | 
27 | CC(C)c1ccc(N(CC(=O)NCCCN2CCOCC2)S(=O)(=O)c2ccccc2)cc1 |  | inactive: 1.82%
28 | CCC(C)NC(=O)c1cn(CC)c2ccc(S(=O)(=O)N3CCc4ccccc4C3)cc2c1=O (centres undefined) |  | inactive: 2.26%
29 | COC(=O)C1CN(C(=O)COc2cccc(C)c2C)c2ccccc2O1 (centres undefined) | inconclusive: 21.3 µM [inhibitor, single point] | 
30 | CC(C)c1ccc(NC(=O)[C@H](NC(=O)[C@@H]2Cc3ccccc3CN2)c2ccccc2)cc1 | inconclusive: 26.9 µM [inhibitor, single point] | 
31 | C/C(=N\NC(=O)COc1ccc(C(C)(C)C)cc1)c1ccccc1 | active: 10.7 µM | 
32 | COc1ccc(/C=C/C(=O)c2cc3cccc(OC)c3oc2=O)cc1 | inconclusive: 7.57 µM [inhibitor, partial curve] | 
33 | O=C(CSc1nc2ccccc2n1Cc1cccc(F)c1)N1CCN(c2ccc(F)cc2)CC1 |  | inactive: -1.52%
34 | O=C(NC1CCCCCC1)c1ccc(CS(=O)c2cccc(Cl)c2)o1 (centres undefined) |  | inactive: -5.84%
35 | COc1ccc(-c2ocnc2C(=O)Nc2ccc3c(c2)CCC3)cc1 | active: 7.57 µM | 
36 | Cc1ccc2c(c1)c(C)c(C)n2CC(O)Cn1nnc2ccccc21 (centres undefined) | inconclusive: 23.9 µM [inhibitor, partial curve, poor fit] | 
37 | Cc1ccc(C(=O)NNC(=O)c2ccc3ccccc3c2O)cc1 | inconclusive: 21.3 µM [inhibitor, single point] | 
38 | Cn1c(-c2ccccc2)c(C=O)c2ccccc21 | inconclusive: 26.9 µM [inhibitor, partial curve] | 
39 | CC(C)(C)c1nnc(NC(=O)c2ccc3c(c2)OCO3)s1 | active: 6.75 µM | 
40 | c1ccc2c(N3CCCCC3)nnc(N3CCCCC3)c2c1 | inconclusive: 37.9 µM [inhibitor, partial curve, poor fit] | 
41 | Brc1cc(Br)c2nc(-c3ccc(N4CCOCC4)cc3)ccc2c1 | inconclusive: 13.5 µM [inhibitor, partial curve, poor fit] | 
42 | CCCC1=NN(C(=O)C(=O)Nc2ccc(Br)cc2)C(O)(C(F)(F)F)C1 (centres undefined) | inconclusive: 23.9 µM [inhibitor, single point] | 
43 | COc1ccccc1/C=N/OC(=O)c1ccc(F)cc1 | active: 3.38 µM | 
44 | COC(=O)c1[nH]c2ccc(C)cc2c1NC(=O)C1=COCCO1 | inconclusive: 37.9 µM [inhibitor, single point] | 
45 | CC1CCCCC12NC(=S)N(c1ccccc1)N2 (centres undefined) | inconclusive: 30.1 µM [inhibitor, partial curve, poor fit] | 
46 | O=C1CCSc2ccc(S(=O)(=O)Nc3cccc(C(F)(F)F)c3)cc2N1 | inconclusive: 37.9 µM [inhibitor, partial curve, poor fit] | 
47 | O=C(Nc1ccc(Br)cc1)c1cc(S(=O)(=O)Nc2ccccn2)ccc1Cl | inconclusive: 26.9 µM [inhibitor, partial curve, poor fit] | 
48 | O=c1c(N2CCN(c3cccc(Cl)c3)CC2)csc2ccc(Cl)cc12 | inconclusive: 30.1 µM [inhibitor, partial curve, poor fit] | 
49 | Fc1cccc(Cl)c1Cn1nnc(-c2ccc(N3CCOCC3)cc2)n1 | inconclusive: 9.53 µM [inhibitor, partial curve, poor fit] | 
50 | O=C(Nc1nc2cc3c(cc2s1)OCCO3)c1cccs1 | active: 0.213 µM | 

Row | SMILES | Potency | activity change, negative = inhibition
51 | CCc1cccc(C)c1NC(=O)Cn1ncc2c3ccccc3n(Cc3ccccc3)c2c1=O |  | inactive: -0.428%
52 | O=C(COC(=O)/C=C/c1ccc(OC(F)F)cc1)Nc1cccc(S(=O)(=O)N2CCCC2)c1 | active: 19 µM | 
53 | CCOC(=O)C1(Cc2cccc(Cl)c2)CCCN(C(=O)c2ccco2)C1 (centres undefined) | inconclusive: 26.9 µM [inhibitor, partial curve, poor fit] | 
54 | Cc1ccc(Cl)cc1Nc1nn2c(=O)c3ccc(C(=O)NC4CCCCC4)cc3nc2s1 |  | inactive: -2.22%
55 | O=[N+]([O-])c1ccccc1N/N=C/c1cc2ccccc2nc1Cl | inconclusive: 7.57 µM [inhibitor, full curve] | 
56 | Cc1ccccc1C(=O)O/N=C(\N)c1cccc([N+](=O)[O-])c1 | active: 0.601 µM | 
57 | COc1ccc(CNC(=O)c2ccc(CS(=O)(=O)c3ccc(Br)cc3)o2)cc1 | inactive | 
58 | Cn1c(N)c(C(=O)COC(=O)CC(NC(=O)c2ccccc2Cl)c2ccccc2)c(=O)n(C)c1=O (centres undefined) |  | inactive: -1.65%
59 | C=CCNC(=O)c1onc(CSc2cccc3ccccc23)c1C(=O)O | inconclusive: 23.9 µM [inhibitor, single point] | 
60 | O=C(NCC1CC1)c1ccc(Nc2nc3ccc(Br)cc3[nH]2)cc1 | inconclusive: 33.8 µM [inhibitor, single point] | 
61 | O=C(c1cc2cc3ccc(Cl)cc3nc2o1)N1CCN(c2cccc(Cl)c2)CC1 |  | inactive: -9.58%
62 | O=c1c2nncn2ccn1-c1ccc(F)c(F)c1 |  | inactive: 1.02%
63 | CCCn1ncc2c(Nc3ccc(C)c(C)c3)ncnc21 | active: 23.9 µM | 
64 | Cc1ccc(NC(=O)CCC(=O)c2cccs2)c(O)c1 | inconclusive: 37.9 µM [inhibitor, single point] | 
65 | Cc1cccc(NC(=O)N2CC=C(c3c[nH]c4ccccc34)CC2)c1C |  | inactive: -18.3%
66 | Cc1cccc(NC(=O)c2cnc3n(c2=O)CCS3)c1 | active: 12 µM | 
67 | COc1ccc(C(=O)NC(=S)Nc2ccc(N3CCOCC3)c(Cl)c2)cc1[N+](=O)[O-] |  | inactive: -9.35%
68 | O=C(N/N=C/c1ccc(-c2ccccc2Cl)o1)c1ccccc1 | active: 13.5 µM | 
69 | c1ccc2[nH]c(NN=C3CCCCCC3)nc2c1 | active: 3.38 µM | 
70 | O=C1NN(c2ccccc2)C(=O)/C1=C\c1ccc(-c2cc([N+](=O)[O-])ccc2O)o1 | active: 15.1 µM | 
71 | CCNC(=O)COC(=O)c1cccc(Br)c1 |  | inactive: -1.82%
72 | N#Cc1ccc(C(=O)NC23CC4CC(CC(C4)C2)C3)cc1 |  | inactive: 5.25%
73 | CCCc1cc(C(=O)NCC(C)C)no1 | inconclusive: 26.9 µM [inhibitor, single point] | 
74 | COc1ccc(/C=N/NC(=O)c2cc3c(OC)ccc(OC)c3[nH]2)cc1O | active: 10.7 µM | 

From PubChem BioAssay AID588342 (National Center for Advancing Translational Sciences (NCATS), 2011)
